# Where “and” joins values, the source holds several entries; their conditions need not be identical. Equal entries are not always repeated. Out of some 73,000 compounds screened, about 2,500 (3.4%) were called active. The shares of active, inactive and inconclusive entries below differ from those in the screen. The call rests on the fitted dose curve; in most records, active means well fitted inhibition curve with a large enough effect; inconclusive means small, poorly fitted or top-dose-only effect; inactive means no such curve, though single readings can be large or run the other way. Potencies of inconclusive entries are doubtful fits and often do not repeat.
# Molecular target: 3-hydroxyacyl-CoA dehydrogenase type-2 (Homo sapiens) (UniProt Q99714)
# Assay: qHTS Assay for Inhibitors of HADH2 (Hydroxyacyl-Coenzyme A Dehydrogenase, Type II); further: nearly all actives have a fitted effect of over 60% in size
# Details: recombinant HADH2, NADH fluorescence, beta-hydroxybutyryl-CoA; activity change, negative = inhibition: at 57.1 µM (top of the series)
# Procedure, shortened: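 NADH fluorescence (ex 360/em 450 nm) read every 30 s for 4 min; activity taken as last-minus-first time point difference. Enzyme 20 nM, NAD+ 1 mM, beta-hydroxybutyryl-CoA 90 uM, pH 9.0 Tris buffer.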
# On the % scale 0 is the no-effect control and ±100 the full control effect; potency means the concentration at half of the fitted maximal effect; tags describe the fitted curve by direction and shape.
# Chain of UniProt Q99714 (Q99714 whole entry, looked up): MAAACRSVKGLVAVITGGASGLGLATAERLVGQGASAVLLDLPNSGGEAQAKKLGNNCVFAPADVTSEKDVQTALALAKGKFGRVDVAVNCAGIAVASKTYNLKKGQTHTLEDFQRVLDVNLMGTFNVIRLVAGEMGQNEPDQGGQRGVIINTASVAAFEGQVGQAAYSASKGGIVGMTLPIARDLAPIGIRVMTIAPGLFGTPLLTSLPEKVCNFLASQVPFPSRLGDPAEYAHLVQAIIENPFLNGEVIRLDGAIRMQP
# Chain of UniProt Q99714 (Q99714 whole entry, looked up): as above
Structure (SMILES),Potency,"activity change, negative = inhibition"
CCCCn1c(-c2ccccc2)nc2c(=O)n(C)c(=O)[nH]c21,inactive,
CC(C)(C)n1ncc2c(=O)n(CC(=O)NCc3ccccc3Cl)cnc21,inactive,
NC1=NC(=Nc2ccccc2)c2ccccc21,inactive,
O=C(O)c1cccc(S(=O)(=O)Nc2ccc3oc(=O)sc3c2)c1,active: 0.631 µM,
COCCOC(=O)C1=C(C)NC2=C(C(=O)CC(C)(C)C2)C1c1cccnc1 (stereo not given),"inconclusive: 31.6 µM [inhibitor, single point]",
CCCc1cc(=O)[nH]c(SCC(=O)N(C)Cc2ccccc2)n1,"inconclusive: 5.01 µM [inhibitor, single point]",
Cc1oc(/N=C/c2cccc3ccccc23)c(C#N)c1C,"inconclusive: 3.16 µM [inhibitor, partial curve]",
CC(=O)C(Sc1nn(C)c(=S)s1)C(=O)Nc1ccccc1 (stereo not given),"inconclusive: 3.16 µM [inhibitor, full curve]",
N[C@@H](Cc1c[nH]c2ccccc12)C(=O)O,inactive,
Cc1ccccc1-c1nc(NC2CCNCC2)c2ccccc2n1,"inconclusive: 39.8 µM [inhibitor, single point]",
CC1CCCCC1NC(=O)CN1CCC(O)(c2ccc(F)cc2)CC1 (stereo not given),inactive,
CCN(CC)CCNC(=O)c1cc2c(=O)n(C)c3ccccc3c2n1C,"inconclusive: 20 µM [inhibitor, single point]",
Cc1cc2n(n1)SC(Nc1ccccc1)N2 (stereo not given),"inconclusive: 31.6 µM [inhibitor, single point]",
Cc1cc2c(c(=O)o1)[C@H](O)[C@H]1O[C@@H]1C2=O,active: 3.16 µM,
c1cncc(-c2nnc(-c3cccs3)o2)c1,"inconclusive: 31.6 µM [inhibitor, single point]",
CC(=O)N1C(=O)c2cccc3cccc(c23)C(=O)N1C(C)=O,active: 15.8 µM,
COc1ccccc1N1CCN(CCCCNC(=O)c2ccc(-c3ccc(C(C)=O)cc3)cc2)CC1,inactive,
COc1ccc(Cl)cc1-c1n[nH]c(=S)o1,"inconclusive: 20 µM [inhibitor, single point]",
O=C(CSc1nc(O)c(Cc2ccccc2)c(=O)[nH]1)Nc1ccccc1,"inconclusive: 25.1 µM [inhibitor, single point]",
Cc1oc2cc3c(C(=O)OCCN(C)C)c(C)oc3cc2c1C(=O)OCCN(C)C,inactive,
CC1CCc2sc3ncn4nc(C(=O)NCc5ccco5)nc4c3c2C1 (stereo not given),"inconclusive: 39.8 µM [inhibitor, single point]",
Cc1oc2c(CN(C)C)c(O)ccc2c(=O)c1-c1cscn1,active: 31.6 µM,
O=C(CSc1nnc(-c2ccccc2)o1)N1CCN(c2ccccc2)CC1,active: 31.6 µM,
Cc1ccc(S(=O)(=O)Nc2ccc3nc(N)sc3c2)cc1,"inconclusive: 39.8 µM [inhibitor, single point]",
COc1ccc(OC)c(NC(=O)CSc2nnc(CNC(=O)c3ccco3)o2)c1,"inconclusive: 39.8 µM [inhibitor, single point]",

Structure (SMILES),Potency,"activity change, negative = inhibition"
Cc1oc(-c2ccc(F)cc2)cc1-c1nn2c(-c3ccco3)nnc2s1,"inconclusive: 39.8 µM [inhibitor, single point]",
CCCCN1C(=O)c2ccc(C(=O)Nc3c(N)n(CCCC)c(=O)n(C)c3=O)cc2C1=O,"inconclusive: 6.31 µM [inhibitor, single point]",
COc1ccc(OC)c(/C=N/c2oc(-c3ccco3)c(-c3ccco3)c2C#N)c1,active: 20 µM,
O=C(O)[C@@H](S)[C@H](S)C(=O)O,active: 1 µM,
CC(=O)C1C(c2ccc(F)c(F)c2)NC(=O)NC1(O)C(F)(F)F (stereo not given),inactive,
COCc1cc(C)nc2sc(C(=O)N3CCN(c4ccccc4)CC3)c(N)c12,"inconclusive: 10 µM [inhibitor, partial curve]",
COc1ccccc1OCC(=O)Nc1cccc(-c2nc3ccccc3o2)c1,"inconclusive: 31.6 µM [inhibitor, single point]",
CNc1ccc([N+](=O)[O-])cc1,"inconclusive: 31.6 µM [inhibitor, single point]",
COc1ccc(-c2cn3cc(C)ccc3n2)cc1OC,active: 31.6 µM,
COC(=O)c1cc(=O)c2ccc(OC)cc2o1,inactive,
Cc1nc2cnc(N3CCNCC3)nc2n(CCC#N)c1=O,"inconclusive: 25.1 µM [inhibitor, single point]",
CCCC/C=C/C(NC(=O)c1ccco1)c1ccccc1 (stereo not given),inactive,
O=C(Nc1ccon1)c1cnc2sccn2c1=O,active: 25.1 µM,
CCOC(=O)c1c(NC(=O)Cc2cccs2)sc2c1CCCC2,"inconclusive: 31.6 µM [inhibitor, single point]",
Cc1nc(NCc2ccccc2)c2nc(-c3ccccc3)n(CCN3CCOCC3)c2n1,"inconclusive: 39.8 µM [inhibitor, single point]",
COc1cc(CNC(=O)c2ccc(Cn3nc(C)c(Cl)c3C)o2)cc(OC)c1,"inconclusive: 7.94 µM [inhibitor, single point]",
COc1ccc(S(=O)(=O)N2CCN(c3cc(-c4ccccc4)nc4ncnn34)CC2)cc1,"inconclusive: 2.51 µM [inhibitor, partial curve]",
N#CCCN(Cc1cccnc1)C(=O)c1ccc(S(=O)(=O)N2CCOCC2)cc1,"inconclusive: 39.8 µM [inhibitor, single point]",
CCOC(=O)N1CCN(c2c(N3CCc4ccccc4C3)c(=O)c2=O)CC1,inactive,
O=C(NCc1ccco1)c1ccc2c(c1)C(=O)c1ccccc1-2,"inconclusive: 25.1 µM [inhibitor, single point]",
COc1ccc(CN(Cc2cc3cc4c(cc3[nH]c2=O)OCO4)C(=O)NC2CCCCC2)cc1,"inconclusive: 39.8 µM [inhibitor, single point]",
COc1ccc(CC(=O)n2nc(-c3cccnc3)nc2N)cc1,"inconclusive: 25.1 µM [inhibitor, partial curve]",
CC(=O)OCC1=C(C(=O)O)N2C(=O)[C@@H](NC(=O)CSc3ccncc3)[C@@H]2SC1,"inconclusive: 20 µM [inhibitor, partial curve] and inconclusive: 12.6 µM [inhibitor, partial curve]",
O=C(CCn1c(=O)oc2ccccc21)n1c(=O)oc2ccccc21,active: 7.94 µM,
C=CCn1c(Cc2cccs2)nnc1SCC(=O)c1cccc(Br)c1,"inconclusive: 39.8 µM [inhibitor, single point]",

Structure (SMILES),Potency,"activity change, negative = inhibition"
O=c1c(-c2ccc(F)cc2)nc2cncnc2n1C1CC1,inactive,
CN(C)CCCOC(=O)c1cc2ccccc2o1,"inconclusive: 39.8 µM [inhibitor, single point]",
COCc1cc(=O)n2c([nH]c3ccccc32)c1C#N,active: 3.98 µM,
O=C(Nc1sc2c(c1C(=O)NCc1ccco1)CCCC2)c1ccc2c(c1)OCO2,active: 25.1 µM,
CCOC(=O)Cc1csc(SCC(=O)Nc2sc3c(c2C(N)=O)CCC3)n1,"inconclusive: 31.6 µM [inhibitor, single point]",
CCOc1nc(NCCc2ccc(OC)c(OC)c2)nc(NC(C)(C)CO)n1,inactive,
CC1CCCCN1c1nnc(NC(=O)Cn2c(=O)oc3ccccc32)s1 (stereo not given),inactive,
O=C1NC(=O)c2c(NC(=O)C3CCCO3)cccc21 (stereo not given),"inconclusive: 31.6 µM [inhibitor, single point]",
O=C1c2sc3nc4c(c(=O)n3c2C(=O)N1c1ccccc1)CCC4,"inconclusive: 25.1 µM [inhibitor, single point]",
O=CN1CCN(C[C@H](O)CN2CCCCC2)CC1,"inconclusive: 0.199 µM [inhibitor, full curve, poor fit]",
Cc1c(-c2ccc(O)cc2)nn(-c2ccc(O)cc2)c1-c1ccc(OCCN2CCCCC2)cc1,"inconclusive: 39.8 µM [inhibitor, single point]",
Nc1nc(SCCc2ccccc2)c2[nH]cnc2n1,,inactive: -6.03% [at 11.4 µM]
CCSc1ccc2nnc(-c3cccc(F)c3)n2n1,"inconclusive: 15.8 µM [inhibitor, partial curve]",
Cc1ccc2nc3c(cc2c1)c(NC(=O)c1cccnc1)nn3C,inactive,
COc1ccc2c(c1)c1ncn(CCN3CCCC3)c(=O)c1n2C,active: 25.1 µM,
COC(=O)c1sccc1NC(=O)c1cc2c(s1)CCCC2,"inconclusive: 31.6 µM [inhibitor, single point]",
COc1ccc(-c2nc(C#N)c(NCc3ccccc3Cl)o2)cc1OC,active: 31.6 µM,
C=CCn1sc(=N)c(C#N)c1N,"inconclusive: 39.8 µM [inhibitor, single point]",
O=C(Nc1nc2ccccc2n1CCN1CCOCC1)c1cn(-c2ccccc2)nc1-c1ccccc1,"inconclusive: 39.8 µM [inhibitor, single point]",
N#Cc1c(N)nc(N2CCCC2)c(C#N)c1-c1ccc(Cl)cc1,"inconclusive: 31.6 µM [inhibitor, single point]",
CC(C)N(C(=O)CSc1nnc(-c2cc3ccccc3cc2O)n1Cc1ccco1)C(C)C,inactive,
CN(C)CC(CN(C)C)c1ccccn1,,inactive: 2.31% [at 11.4 µM]
COc1cccc(CNC(=O)C2CCN(S(=O)(=O)N3CCCCC3)CC2)c1,"inconclusive: 0.0063 µM [inhibitor, full curve, poor fit]",
Cc1cccc(N2CSC3=C(C#N)C(c4ccc(C)o4)CC(=O)N3C2)c1 (stereo not given),active: 3.16 µM,
NC(=O)SCC(=O)Nc1ccc(Cl)cc1,"inconclusive: 0.501 µM [inhibitor, full curve, poor fit]",

# — PubChem BioAssay AID886 (National Center for Advancing Translational Sciences (NCATS), 2007)
